The other results are listed elsewhere or left out. Repeats are few or missing, and single values can be far off.
Experiments:
Assay in all cases: cell count relative to DMSO control; melanoma cells; higher = more viable cells
Details in all cases: library dose: low library concentration; 72 h
WM115 = test system: WM115
WM1716 = test system: WM1716
WM1745 = test system: WM1745
WM3526 = test system: WM3526
WM3619 = test system: WM3619
WM451Lu = test system: WM451Lu
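Also: cell number obtained by counting DAPI-stained nuclei in high-throughput microscope images with image analysis software, screen run in 1,536-well plates.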

| SMILES | cell count (WM115) [%] | cell count (WM1716) [%] | cell count (WM1745) [%] | cell count (WM3526) [%] | cell count (WM3619) [%] | cell count (WM451Lu) [%] |
| --- | --- | --- | --- | --- | --- | --- |
| O=c1[nH]nc(Sc2ncc([N+](=O)[O-])s2)n1-c1ccc2c(c1)OCCO2 + NC(=O)c1ccc(N(C(N)=O)c2c(F)cccc2F)nc1-c1ccc(F)cc1F [VX702] (first compound 0.2 µM, partner dose 0.4 µM) | 98 | 114 | 87.2 | 80.5 | 125 | 89.4 |
| O=c1[nH]nc(Sc2ncc([N+](=O)[O-])s2)n1-c1ccc2c(c1)OCCO2 + Oc1nc(-c2ccc(C(F)(F)F)cc2)nc2c1CSCC2 [XAV939] (first compound 0.2 µM, partner dose 2 µM) | 87.3 | 64.1 | 94.2 | 98.9 | 95.5 | 84.1 |
| C[C@@H]1CCN(C(=O)CC#N)C[C@@H]1N(C)c1ncnc2[nH]ccc12 + O=C1NC(=O)/C(=C/c2ccc(-c3ccc(F)cc3O)o2)S1 [AS252424] (first compound 1 µM, partner dose 1 µM) | 100 | 99.4 | 97.9 | 83.6 | 112 | 115 |
| O=c1[nH]nc(Sc2ncc([N+](=O)[O-])s2)n1-c1ccc2c(c1)OCCO2 + COc1cc(Nc2ncc(F)c(Nc3ccc4c(n3)NC(=O)C(C)(C)O4)n2)cc(OC)c1OC [Tamatinib] (first compound 0.2 µM, partner dose 0.4 µM) | 76.2 | 88.7 | 75.1 | 88.5 | 101 | 86.6 |
| C[C@@H]1CCN(C(=O)CC#N)C[C@@H]1N(C)c1ncnc2[nH]ccc12 + Cc1cc([N+](=O)[O-])ccc1NS(=O)(=O)c1cc(Cl)ccc1Cl [FH535] (first compound 1 µM, partner dose 1 µM) | 95 | 98.9 | 106 | 107 | 101 | 109 |
| O=C(O)c1ccc(-c2c[nH]c3ncc(-c4ccccc4)cc23)cc1C1CCCC1 + NCC(=O)Nc1ccc(-n2nc(C(F)(F)F)cc2-c2ccc3c(ccc4ccccc43)c2)cc1 [OSU03012] (first compound 0.16 µM, partner dose 1 µM) | 83.8 | 108 | 114 | 45 | 79.1 | 61.5 |
| Cn1cncc1[C@@](N)(c1ccc(Cl)cc1)c1ccc2c(c1)c(-c1cccc(Cl)c1)cc(=O)n2C [tipifarnib] + CCCCCCCCCCCC1=C(O)C(=O)C=C(O)C1=O [Embelin] (first compound 0.01 µM, partner dose 1.2 µM) | 99.9 | 84.7 | 103 | 84.4 | 115 | 99.7 |
| O=c1[nH]nc(Sc2ncc([N+](=O)[O-])s2)n1-c1ccc2c(c1)OCCO2 + CNC(=O)c1cc(Oc2ccc(NC(=O)Nc3ccc(Cl)c(C(F)(F)F)c3)cc2)ccn1 [sorafenib] (first compound 0.2 µM, partner dose 0.4 µM) | 98.1 | 85.6 | 102 | 86.4 | 102 | 101 |
| COc1cc(Nc2ncc(F)c(Nc3ccc4c(n3)NC(=O)C(C)(C)O4)n2)cc(OC)c1OC [Tamatinib] + C=CCn1c(=O)c2cnc(Nc3ccc(N4CCN(C)CC4)cc3)nc2n1-c1cccc(C(C)(C)O)n1 [MK1775] (first compound 0.4 µM, partner dose 0.02 µM) | 83.6 | 83 | 74.3 | 84 | 81.6 | 115 |
| COc1cc(Nc2ncc(F)c(Nc3ccc4c(n3)NC(=O)C(C)(C)O4)n2)cc(OC)c1OC [Tamatinib] + CN(NC(=O)CC(=O)NN(C)C(=S)c1ccccc1)C(=S)c1ccccc1 [STA4783] (first compound 0.4 µM, partner dose 0.006 µM) | 71.1 | 67.5 | 39.4 | 97 | 51.1 | 105 |
| CC1(C)NC(=O)N(c2ccc([N+](=O)[O-])c(C(F)(F)F)c2)C1=O [nilutamide] + Oc1nc(-c2ccc(C(F)(F)F)cc2)nc2c1CSCC2 [XAV939] (first compound 1 µM, partner dose 2 µM) | 92.7 | 56.9 | 83.4 | 126 | 105 | 104 |
| O=c1[nH]nc(Sc2ncc([N+](=O)[O-])s2)n1-c1ccc2c(c1)OCCO2 + C[C@]1(c2nc3c(C(N)=O)cccc3[nH]2)CCCN1 [Veliparib] (first compound 0.2 µM, partner dose 1.4 µM) | 85.9 | 104 | 122 | 118 | 105 | 84.1 |
